The supplement of paper PMC3334620
Whole data set: some 33,000 sequences, median “E-score (-0.5 to 0.5)” near -0.012, cut for the highest 2% near 0.27. The list shows a part of the results.

Molecular target: T1, Vhr1 (UniProt P40522)
T1 sequence: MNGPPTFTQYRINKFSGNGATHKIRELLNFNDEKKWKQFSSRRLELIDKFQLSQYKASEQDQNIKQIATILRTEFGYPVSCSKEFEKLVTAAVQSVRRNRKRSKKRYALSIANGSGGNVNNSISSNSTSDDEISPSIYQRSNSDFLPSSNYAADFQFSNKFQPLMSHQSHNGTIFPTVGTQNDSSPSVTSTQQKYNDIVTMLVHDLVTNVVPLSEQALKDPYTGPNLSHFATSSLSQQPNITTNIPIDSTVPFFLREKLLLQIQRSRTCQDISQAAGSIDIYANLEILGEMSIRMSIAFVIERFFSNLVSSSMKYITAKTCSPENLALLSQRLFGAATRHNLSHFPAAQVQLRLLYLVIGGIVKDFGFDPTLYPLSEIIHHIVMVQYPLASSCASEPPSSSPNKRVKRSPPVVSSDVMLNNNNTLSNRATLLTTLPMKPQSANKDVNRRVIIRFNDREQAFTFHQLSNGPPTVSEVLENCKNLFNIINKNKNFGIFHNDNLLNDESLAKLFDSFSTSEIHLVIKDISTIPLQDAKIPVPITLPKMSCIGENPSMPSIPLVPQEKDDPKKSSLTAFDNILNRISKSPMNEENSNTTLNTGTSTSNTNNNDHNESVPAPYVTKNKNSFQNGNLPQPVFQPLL
Test: PBM E-score (8-mer binding enrichment) (E-score (-0.5 to 0.5)); higher = stronger / more preferred TF binding; most listed sequences are background and not binding sites
Settings: protein concentration: 200 nM; construct: GST-full length
Procedure, shortened: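 E-scores (a modified Wilcoxon-Mann-Whitney statistic) were assigned by the Universal PBM Analysis Suite to every ungapped eight-base word pooled with its reverse complement. The input came from universal all-10-mer Agilent arrays made double-stranded by primer extension and probed with GST-tagged yeast transcription factors at about 100-200 nM. Fluorescent anti-GST detected bound protein, and masliner normalised the scans.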

Sequence	PBM E-score
CCGTGCGC	0.0682
AACGTCGG	-0.0981
ATAGCTTA	-0.0267
CATGATGC	0.0907
ATGGCTAG	0.0908
AGATGCAT	0.116
CAACTCAG	0.0745
ACCTTACG	-0.114
GGATATTA	0.257
CACGCGGG	0.00188
CGAGGCTC	-0.0648
CTAGCGGA	-0.199
GTAAACCA	-0.121
ATTCGTAG	-0.0281
CTCCCCAC	0.0213
AGTAATGC	-0.0376
AACCGAGA	0.0843
ATCCTCTA	-0.204
GGTAAGAA	-0.0756
ATTTTCAG	-0.144
TCGACAAA	-0.0716
GCTAGCCC	-0.273
GACTATTA	0.0423
TTTAAAAA	-0.185
CATGTAGG	0.0664

Sequence	PBM E-score
ATGGATAA	0.182
AGGGAATC	0.142
ATAACGAT	-0.00563
ATGGCAGC	0.251
AGGAAAAC	-0.0654
CTCACTGC	-0.102
CACGGAGG	-0.114
CATACGGG	-0.183
CAAGTATA	-0.288
AGGGAAGA	-0.308
AGCCGTCG	0.103
AAATACTG	-0.0503
ACTGCGCG	-0.00939
AGGTGAGA	-0.124
CTAGTACA	0.119
GGCTATTA	0.0345
AGAGCCGA	0.0913
AGCTTTCC	-0.227
ATCCGAAC	0.0441
ACCACGAA	0.0839
ACGTGATG	0.00697
AAACAGCG	0.0426
GTGGACGA	-0.0286
CGTACCAA	0.0513
CTCTGTGA	-0.0592

Sequence	PBM E-score
AAAATGAC	-0.0335
ACCCTCGA	-0.0541
GTACAAGA	0.0464
AGCTGTTA	0.00687
AGAACCCT	-0.14
CAAATAGA	0.0696
CTCCTAGA	-0.058
ATTGAGCA	0.0806
AAGCTGTA	0.0468
AACCTAGC	-0.0285
CCGTTGGA	-0.165
AGAGAGAG	-0.0525
GATTGTCA	-0.0917
ATAACCCA	0.0893
TCCGACGA	-0.0551
CAATTCCC	-0.0287
CATTGCAC	0.174
TGCGTCAA	-0.227
ACATTAAT	0.168
CTTCAATC	-0.0571
CGGAGGGC	-0.173
CGCTGGAC	-0.0176
AGTTTCAC	-0.0487
ATAATCGA	0.0552
CAGTTGGG	0.173

Sequence	PBM E-score
AGAGTGGG	0.0768
ACTTCCGC	0.0208
CAGTTCCC	0.0685
ACGGCTGC	0.0519
CTCAGGAG	0.193
CAGACTAG	0.0661
CCATCGAA	0.119
CACCAGTG	0.0505
ACATGACT	0.446
CGCAGTCA	0.363
ACCTGTGG	-0.13
CTATTGCA	-0.0654
ACGCATAC	0.0004
ACCGTCGC	0.0711
GATTCAAA	-0.0717
CATCCCAC	0.114
GATAGTGC	0.0119
ACTAATGG	0.0879
CGGCGCCA	-0.116
ACGCCCCG	0.00684
CCTGACAC	0.188
CAGAGCCG	-0.0339
ATACCTAG	0.129
AAGAGGAG	0.0429
AGTGTGTA	0.238

Sequence	PBM E-score
GAGTTATC	0.118
CACCTTTA	-0.174
GTAATTGA	0.0141
GATTTACC	-0.0729
ATGGCAAT	0.0411
CTAGCTAC	-0.0816
GACCGGGA	0.186
AATGTCCA	-0.157
CAAATTCA	-0.0318
AACAAGCT	-0.00349
GTTTGGGA	0.0203
CCACCCGC	0.142
ACACCACT	0.21
AGCACTGG	-0.0591
CCACTGAG	-0.00167
GATCCAAA	0.00716
TACTACTA	0.208
AGCTCACC	0.104
AGTCCGAG	0.156
ACAACCAT	0.19
ACACTCGT	-0.0745
CTCATCTA	-0.0343
TACCGGGA	0.126
AGTACAGA	0.137
AACATTAA	-0.0426

Sequence	PBM E-score
CGAATCAG	0.344
ACCGCATC	0.126
CGCGATTC	0.278
AGATCACC	-0.0605
AACGCGTC	-0.137
AAAACATC	-0.0435
CAACAGAG	-0.0195
GCGAAATA	-0.228
CCATACCC	0.113
CGGAGACA	0.139
CTGTGGGC	-4e-05
GGCACCGA	-0.0544
CTGGGAGC	-0.205
AGGAGGGC	-0.11
CCATTCCA	0.164
ACCCTTAT	-0.115
CCCCCGGA	0.0245
AATCGCGC	0.231
AAAATTCG	0.0473
CGCGGTGA	0.21
GAAGCAAC	-0.086
AAACGAAA	-0.057
AAGCTCAG	-0.0615
TAAGCTCA	-0.0939
CGTTTGAG	0.00422

Sequence	PBM E-score
CCACACGA	-0.00498
GAACTTCC	-0.269
AGATATCA	0.0108
TGGTATAA	-0.0214
CATAACGC	-0.0468
CATAGCGC	0.105
GATATACC	0.165
AAACTTCC	-0.0962
AACGCGTT	-0.0116
GTTCCCCA	-0.117
TAGGAACA	-0.169
GATGTGAA	0.0877
GCCGCGGC	0.237
AACGCACA	0.13
ATCATGGA	0.22
CGAGAAAG	-0.012
AAGTTTGC	0.133
CGAGCAGA	0.0217
AACTCGTA	0.0622
CGCTCTGC	0.0608
ATTTCCTC	-0.12
CATAGCGG	-0.085
CCTCCCCG	0.155
TAACCGCA	0.148
CGATCAAA	0.0148

Sequence	PBM E-score
AGGAATTA	-0.0656
ATGCTTGG	-0.068
CTACGAGA	-0.0207
ATCGATCC	0.0602
CATGCGCG	0.102
AAGAAGTC	-0.00524
ATTTTTCA	-0.137
AGAAGAGA	-0.255
GCGACCGA	0.0781
AACTTCCC	-0.179
GGGTTAAA	-0.086
AATGGAGC	0.0103
GGTCCGAC	0.0207
CAGTTTCG	-0.00977
CTTCTGTA	-0.102
AATACAAG	0.26
CAGCTCCA	-0.104
CCGCCCCC	-0.17
CTCGAAAC	-0.109
CAAACAGG	0.0517
CAGCGGGC	0.0388
CTGTGGGA	0.00015
GCGATAGC	-0.0722
TAGAGAAA	-0.313
CTAATTTC	-0.0654

Sequence	PBM E-score
CAAATACA	0.161
GCTTCATA	0.0559
AAGCAAAA	-0.165
CACACGGG	0.192
GGGACTCA	0.261
TCGCACGA	0.0168
CAGATTCG	0.069
CCAGACCC	0.009
ACCAGATG	0.101
CCGAGGGA	-0.0926
CGGGCCCC	0.0114
GGTGACAC	0.218
AGGCGCCA	0.0323
AAAAACTT	-0.215
CCTGCTCC	0.0238
AATCATGA	0.331
TCAAGACA	-0.0364
AGTTTGGC	-0.0973
AATAAAAG	-0.243
